Results taken from the BET-seq Pho4 binding data (Le et al. 2018).
Some of the results follow. Values were computed here from the reads of four pooled replicates and scatter widely.

What follows are sequences tested against T1, Pho4 (S. cerevisiae) (UniProt P07270) (assay: relative binding free energy (BET-seq); higher = weaker binding). Settings: reference: library average.
T1 sequence: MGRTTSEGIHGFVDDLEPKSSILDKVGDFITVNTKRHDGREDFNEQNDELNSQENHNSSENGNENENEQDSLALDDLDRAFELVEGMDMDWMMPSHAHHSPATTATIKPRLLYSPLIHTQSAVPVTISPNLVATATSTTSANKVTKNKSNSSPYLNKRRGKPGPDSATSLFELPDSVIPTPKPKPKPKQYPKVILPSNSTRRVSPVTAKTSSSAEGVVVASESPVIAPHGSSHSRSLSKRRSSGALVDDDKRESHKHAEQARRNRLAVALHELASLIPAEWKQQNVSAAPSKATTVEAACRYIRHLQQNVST

Row | Sequence | relative binding free energy
1 | CGTGGCACGTGGTTAA | -0.24 kcal/mol
2 | GAGTGCACGTGGGCGT | -0.14 kcal/mol
3 | AGTGGCACGTGGTAAC | -0.11 kcal/mol
4 | CGGGACACGTGGTGTC | -0.04 kcal/mol
5 | CTTGGCACGTGGGATA | -0.32 kcal/mol
6 | CATAGCACGTGTATGG | -0.01 kcal/mol
7 | AATTGCACGTGAGTTA | 0.18 kcal/mol
8 | TATGGCACGTGGCTTC | 0.04 kcal/mol
9 | GAATACACGTGGCGTG | 0.06 kcal/mol
10 | CGGTCCACGTGGTTTT | 0.09 kcal/mol
11 | GGTCACACGTGCGGGA | 0.22 kcal/mol
12 | GGTCGCACGTGCGAGG | 0.03 kcal/mol
13 | GGGTGCACGTGTGTCG | 0.01 kcal/mol
14 | GTGTACACGTGTTACG | 0.14 kcal/mol
15 | ATTTACACGTGGGTTC | 0.12 kcal/mol
16 | GTGCACACGTGGTGGT | 0.02 kcal/mol
17 | GGCAGCACGTGAGTTT | 0.18 kcal/mol
18 | AACTGCACGTGGATGG | -0.04 kcal/mol
19 | GGTTTCACGTGGGGAT | 0.26 kcal/mol
20 | TTTGACACGTGGAGTG | 0.03 kcal/mol
21 | TGATCCACGTGGGGTT | -0.03 kcal/mol
22 | CTTATCACGTGTGGTC | 0.35 kcal/mol
23 | CGGGACACGTGGTTGT | 0.02 kcal/mol

Row | Sequence | relative binding free energy
24 | TGTGTCACGTGCAATG | -0.07 kcal/mol
25 | TTAGCCACGTGGGCGG | -0.34 kcal/mol
26 | TTCGTCACGTGGGAAT | 0.15 kcal/mol
27 | TGGGGCACGTGAGGAC | 0.09 kcal/mol
28 | TTAAGCACGTGTGATA | -0.01 kcal/mol
29 | AGTTACACGTGCAGTT | 0.03 kcal/mol
30 | GAAAGCACGTGGTAGT | -0.06 kcal/mol
31 | TTGCGCACGTGTCTGG | -0.09 kcal/mol
32 | TGCGGCACGTGTAGTG | -0.02 kcal/mol
33 | TTACGCACGTGTTATT | -0.1 kcal/mol
34 | GTTTTCACGTGGGTCA | 0.29 kcal/mol
35 | ATTTGCACGTGGGTTG | -0.02 kcal/mol
36 | GAGTGCACGTGTAGAA | 0.1 kcal/mol
37 | CATATCACGTGATTGG | 0.12 kcal/mol
38 | ATAGTCACGTGATTGA | 0.09 kcal/mol
39 | CGCATCACGTGGTGTG | -0.01 kcal/mol
40 | TAGTTCACGTGTAAGC | 0.38 kcal/mol
41 | TCCAACACGTGGGTGG | 0 kcal/mol
42 | TACTTCACGTGTGGCG | 0.29 kcal/mol
43 | TAAAGCACGTGTTTTT | -0.03 kcal/mol
44 | TTTCGCACGTGTAGTC | 0.22 kcal/mol
45 | CATGGCACGTGGGGTG | -0.25 kcal/mol
46 | ATTGGCACGTGTGAGC | -0.06 kcal/mol

Row | Sequence | relative binding free energy
47 | TGATACACGTGTTGTG | 0.11 kcal/mol
48 | AAAGTCACGTGGCGGG | 0.1 kcal/mol
49 | TGTGGCACGTGGAGTC | -0.03 kcal/mol
50 | TGGGGCACGTGAGCGT | 0.04 kcal/mol
51 | GATAGCACGTGTTGTT | 0.07 kcal/mol
52 | GTTCTCACGTGTATTG | 0.26 kcal/mol
53 | CTCGGCACGTGAGGTT | 0.13 kcal/mol
54 | GTTGACACGTGGGGAT | -0.06 kcal/mol
55 | TGATACACGTGGGGAT | 0.05 kcal/mol
56 | GCGTTCACGTGTCCGG | 0.39 kcal/mol
57 | GTTGGCACGTGCGGGG | -0.04 kcal/mol
58 | CAAGGCACGTGGGGTC | -0.14 kcal/mol
59 | AGTTGCACGTGTGCAT | -0.03 kcal/mol
60 | TGTTACACGTGTAGTG | 0.17 kcal/mol
61 | TGCGGCACGTGTTGCT | -0.02 kcal/mol
62 | CGTGACACGTGCGGGG | -0.18 kcal/mol
63 | GTGGGCACGTGTGTCT | -0.05 kcal/mol
64 | GGTTGCACGTGGGGTT | -0.01 kcal/mol
65 | AATGGCACGTGCATGT | -0.18 kcal/mol
66 | TGTGTCACGTGATGAA | 0.24 kcal/mol
67 | CCGTACACGTGGTGGG | -0.05 kcal/mol
68 | GTTAGCACGTGCCGGT | 0.08 kcal/mol
69 | ATGCGCACGTGGGTAA | -0.11 kcal/mol

Row | Sequence | relative binding free energy
70 | CTGTGCACGTGGTGAT | -0.1 kcal/mol
71 | TTTTGCACGTGATCAT | -0.09 kcal/mol
72 | CGGGGCACGTGGATTG | 0 kcal/mol
73 | TGAGGCACGTGTGCAG | -0.11 kcal/mol
74 | CTGTGCACGTGTTGGG | 0.03 kcal/mol
75 | AGTCGCACGTGTGTCG | -0.06 kcal/mol
76 | GTAGACACGTGACGGG | 0.21 kcal/mol
77 | ATTTGCACGTGTAAAG | 0.06 kcal/mol
78 | AGGTGCACGTGAGGTT | 0.25 kcal/mol
79 | GTCGGCACGTGATGTG | 0.19 kcal/mol
80 | CGGTGCACGTGCTGTA | -0.06 kcal/mol
81 | TATGGCACGTGACAGG | -0.12 kcal/mol
82 | CGCTTCACGTGGTAGG | 0.32 kcal/mol
83 | GTAGTCACGTGGAATA | 0.23 kcal/mol
84 | CGAGGCACGTGGGTCT | -0.09 kcal/mol
85 | TTTTTCACGTGGTCTG | 0.27 kcal/mol
86 | TTTTTCACGTGCAGCT | 0.13 kcal/mol
87 | GGTTACACGTGCTGTA | 0 kcal/mol
88 | TGCGGCACGTGGGAAT | -0.18 kcal/mol
89 | CATGGCACGTGTTTTT | -0.03 kcal/mol
90 | CTTGTCACGTGTCTTT | 0.02 kcal/mol
91 | AAATGCACGTGTTCGG | -0.05 kcal/mol
92 | GATTACACGTGTGGGT | 0.25 kcal/mol

Row | Sequence | relative binding free energy
93 | TGTGCCACGTGTGGTG | -0.11 kcal/mol
94 | AGTGGCACGTGAGGAG | 0.16 kcal/mol
95 | TGGGTCACGTGTTCTC | 0.09 kcal/mol
96 | GTAAGCACGTGGTAGA | -0.05 kcal/mol
97 | ACGTGCACGTGGACGG | 0 kcal/mol
98 | GATAACACGTGGGGTT | -0.02 kcal/mol
99 | GGGTACACGTGTCTTA | 0.15 kcal/mol
100 | TATCGCACGTGGAAGT | 0.06 kcal/mol
101 | TTGTGCACGTGGACTG | -0.03 kcal/mol
102 | TCTGTCACGTGTAAGG | 0.25 kcal/mol
103 | AACGGCACGTGGGGTC | -0.25 kcal/mol
104 | GGTAACACGTGAACGT | 0.39 kcal/mol
105 | GTCTGCACGTGGGCTG | -0.02 kcal/mol
106 | TAGGACACGTGGAAAG | 0.19 kcal/mol
107 | GTTATCACGTGACGTA | 0.26 kcal/mol
108 | AGGGACACGTGCTTTG | -0.15 kcal/mol
109 | ATTATCACGTGGGGAA | 0.02 kcal/mol
110 | AGTTACACGTGGGATT | 0.09 kcal/mol
111 | GATCGCACGTGGCTGG | 0.04 kcal/mol
112 | TGTGTCACGTGGGCTC | -0.18 kcal/mol
113 | GTTATCACGTGGATGC | 0.04 kcal/mol
114 | CTGGGCACGTGTTGTT | -0.11 kcal/mol
115 | AGCGGCACGTGGTTTT | -0.04 kcal/mol
